Test results reported in the antibiotic and cytotoxicity screens of Wong et al. (2023).
Some of the results follow.

Each compound was assayed on HSkMC (human skeletal muscle cells) (assay: cytotoxicity call (relative viability < 0.9)). Settings: 10 µM.

Compound	cytotoxicity call
CCC(=O)N1C[C@]2(CN(C2)C(=O)CN2CCOCC2)c2c([nH]c3cc(ccc23)OC)[C@H]1CO	inactive
COc1ccc(NC(=O)N(C)C[C@@H]2OCc3ccccc3-c3c(n(C)c4ccccc34)C(=O)N([C@H](C)CO)C[C@H]2C)c(OC)c1	inactive
COc1ccc(S(=O)(=O)N(C)C[C@H]2Oc3ccc(NC(=O)Nc4c(C)noc4C)cc3CC(=O)N([C@@H](C)CO)C[C@H]2C)cc1	inactive
NCc1cccc(-c2nccs2)c1	inactive
C[C@@H]1CN([C@@H](C)CO)C(=O)c2cc(C#Cc3ccccc3)cnc2O[C@H]1CN(C)S(=O)(=O)c1ccccc1F	inactive
Cc1noc(C)c1NC(=O)Nc1cccc2c1O[C@@H](CN(C)C(=O)NC(C)C)[C@@H](C)CN([C@H](C)CO)C2=O	inactive
COc1cccc(S(=O)(=O)N[C@H]2CC[C@@H](CC(=O)NC3CCC3)O[C@H]2CO)c1	inactive
C[C@H](CO)N1C[C@H](C)[C@H](CN(C)S(=O)(=O)c2ccc(Oc3ccccc3)cc2)OCc2cnnn2CCCC1=O	inactive
C[C@@H]1CCCCO[C@H](CN(C)C(=O)CCC(F)(F)F)[C@@H](C)CN([C@@H](C)CO)C(=O)c2cc(NC(=O)C3CCCCC3)ccc2O1	inactive
COc1ccc(NC(=O)Nc2ccc3c(c2)C(=O)N([C@@H](C)CO)C[C@@H](C)[C@H](CN(C)Cc2ccc(C(F)(F)F)cc2)O3)cc1	inactive
C[C@H](CO)N1C[C@H](C)[C@@H](CN(C)S(C)(=O)=O)Oc2ccc(NC(=O)CCCCCC(=O)Nc3ccccc3N)cc2C1=O	inactive
Cc1noc(C)c1NC(=O)N(C)C[C@@H]1Oc2ncc(C#CC(C)(C)O)cc2C(=O)N([C@H](C)CO)C[C@@H]1C	inactive
CC(C)NC(=O)Nc1ccc2c(c1)CC(=O)N([C@H](C)CO)C[C@@H](C)[C@@H](CN(C)C(=O)NC1CCCCC1)O2	inactive
Cc1ccc(S(=O)(=O)N[C@H]2C=C[C@@H](CC(=O)NCCN3CCCCC3)O[C@@H]2CO)cc1	inactive
Cc1ccc(S(=O)(=O)Nc2ccc3c(c2)C(=O)N([C@H](C)CO)C[C@@H](C)[C@@H](CN(C)Cc2ccncc2)OCCCC[C@H](C)O3)cc1	inactive
C[C@@H]1CN([C@H](C)CO)C(=O)c2cc(NC(=O)Cn3cnnn3)ccc2O[C@@H]1CN(C)Cc1ccc2c(c1)OCO2	inactive
CCCNC(=O)N1C[C@H](O)COC[C@@H]2O[C@@H](CC(=O)NCCCN3CCOCC3)CC[C@H]21	inactive
COCC(=O)Nc1ccc2c(c1)[C@@H]1C[C@H](CC(=O)N3CCOCC3)O[C@H](CO)[C@@H]1O2	inactive
NC(=O)[C@H]1CCN(c2ncnc(N)c2F)C[C@@H]1N1CCC[C@@H](Nc2cc(Cl)cc(C(F)(F)F)c2)C1=O	inactive
C[C@@H]1CCCCO[C@@H](CN(C)Cc2ccccc2)[C@@H](C)CN([C@@H](C)CO)C(=O)c2cc(NC(=O)Nc3cccc4ccccc34)ccc2O1	inactive

Compound	cytotoxicity call
C[C@@H]1CCCCO[C@H](CN(C)S(C)(=O)=O)[C@@H](C)CN([C@H](C)CO)C(=O)c2cc(NS(=O)(=O)c3ccc(F)cc3)ccc2O1	inactive
C[C@@H]1CN([C@@H](C)CO)C(=O)Cc2cc(NC(=O)Nc3ccccc3)ccc2O[C@H]1CN(C)S(C)(=O)=O	inactive
Cc1ccc(S(=O)(=O)Nc2ccc3c(c2)C(=O)N([C@H](C)CO)C[C@H](C)[C@H](CN(C)C(=O)Cc2ccccc2)OCCCC[C@@H](C)O3)cc1	inactive
NCc1ccc(-n2cccn2)cc1	inactive
CCCC#Cc1ccc2c(c1)O[C@@H](CN(C)Cc1ccc3c(c1)OCO3)[C@@H](C)CN([C@@H](C)CO)S2(=O)=O	inactive
Cc1ccc(S(=O)(=O)N(C)C[C@@H]2OCCCC[C@@H](C)Oc3ccc(NC(=O)Nc4ccc(F)cc4)cc3C(=O)N([C@H](C)CO)C[C@H]2C)cc1	inactive
C[C@@H]1CN([C@@H](C)CO)C(=O)c2cc(NC(=O)c3ccccc3)ccc2O[C@@H](C)CCCCO[C@H]1CN(C)Cc1ccc(C(=O)O)cc1	inactive
C[C@H]1CN([C@@H](C)CO)C(=O)c2cccc(NC(=O)c3ccc(-c4nccs4)cc3)c2O[C@H]1CN(C)Cc1ccc(C(F)(F)F)cc1	inactive
COCC#Cc1ccc2c(c1)O[C@@H](CN(C)S(=O)(=O)c1ccc(C)cc1)[C@H](C)CN([C@H](C)CO)S2(=O)=O	inactive
C=C[C@H]1CCC=C2C(=O)CCC[C@@H]21	inactive
Cc1ccc(S(=O)(=O)Nc2ccc3c(c2)C(=O)N([C@H](C)CO)C[C@H](C)[C@@H](CN(C)C(=O)Nc2c(C)noc2C)OCCCC[C@H](C)O3)cc1	inactive
CC(C)c1nc(N(C)S(C)(=O)=O)nc(-c2ccc(F)cc2)c1C=CC(O)CC(O)CC(=O)[O-].[Ca+2] (stereo not given)	inactive
C[C@H](CO)N1C[C@H](C)[C@@H](CN(C)Cc2ccccc2)OCCCC[C@H](C)Oc2ccc(NC(=O)c3ccccc3)cc2C1=O	inactive
COc1ccc(NC(=O)N[C@@H]2CC[C@H](CCNC(=O)CN3CCOCC3)O[C@H]2CO)cc1	inactive
C[C@@H]1CN([C@@H](C)CO)C(=O)c2cc(NS(C)(=O)=O)ccc2O[C@@H]1CN(C)S(=O)(=O)c1cn(C)cn1	inactive
Cc1noc(C)c1NC(=O)N(C)C[C@@H]1OCCCC[C@@H](C)Oc2ccc(NS(=O)(=O)c3ccc(Cl)cc3)cc2C(=O)N([C@H](C)CO)C[C@@H]1C	inactive
COc1ccccc1S(=O)(=O)N1C[C@H](O)COC[C@H]2O[C@H](CC(=O)O)CC[C@@H]21	inactive
CCNC(=O)[C@@H]1[C@@H](CO)[C@@H]2Cn3c(ccc(-c4ccc(OC)cc4)c3=O)[C@H]1N2S(C)(=O)=O	inactive
O=C(CCCCCC(=O)N/N=C/[C@H](O)[C@H](O)[C@@H](O)[C@@H](O)CO)NO	inactive
O=C1C[C@]2(c3ccc([N+](=O)[O-])cc3)C(=O)N(Cc3ccccc3)c3cc(CO)ccc3[C@H]2N1C1CCCCC1	inactive
